# The supplement of paper PMC4967469
# A lower IC50 marks a more sensitive line; a fit beyond the top or the lowest dose is shown as a bound at that dose. The AUC spans the tested range (256-fold, ending at the top dose) of the same fit; it is 1 without any effect and falls as sensitivity rises. For some assays here: Where the top dose is marked as inferred, it comes from the curve model; the source does not state it. For some assays here: Where an entry number is given, a second screen of the drug exists; the two often differ.
# What was measured:
# Assay in all cases: Viability of human cancer cell lines after 72 h of drug (GDSC screen)
# [1] = compound: NCC(=O)Nc1ccc(-n2nc(C(F)(F)F)cc2-c2ccc3c(ccc4ccccc43)c2)cc1 [OSU-03012]; conditions: top dose 16 µM; top dose inferred
# Protocol: (§1)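 Human cancer cell lines in 384-well plates, medium with 10% serum, drug for 72 h over a 256-fold dose range (nine 2-fold or five 4-fold steps up to the top dose). Adherent lines were fixed and stained with the nucleic acid dye Syto60, suspension lines read with resazurin; signal relative to control wells, capped at 0 and 100%. One two-parameter sigmoid per drug and line, fitted in a mixed model over all curves with the slope shared within a line.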
# [2] = compound: Fc1cc(-c2ccnc(Nc3ccc(-n4cnc(N5CCOCC5)n4)cc3)n2)cc(N2CCOCC2)c1 [JNK-9L]; conditions: top dose 5.12 µM; top dose inferred
# Protocol: as §1
# [3] = compound: C#Cc1cccc(Nc2ncnc3cc(OC)c(OCCCCCCC(=O)NO)cc23)c1 [CUDC-101]; conditions: top dose 5.12 µM; top dose inferred
# Protocol: as §1
# [4] = compound: CC(C)(C)c1cc(NC(=O)Nc2ccc(-c3cn4c(n3)sc3cc(OCCN5CCOCC5)ccc34)cc2)no1 [AC220]; conditions: top dose 1.024 µM; top dose inferred
# Protocol: as §1
# [5] = compound: OC[C@H](Cc1ccccc1)Nc1nc(Oc2ccc3c(c2)CCC3)nc2c1ncn2Cc1ccc(-c2ccccc2)cc1 [QS11]; conditions: top dose 10.24 µM
# Protocol: as §1
# [6] = compound: O=c1[nH]cc(F)c(=O)[nH]1 [5-Fluorouracil]; conditions: top dose 32 µM; top dose inferred
# Protocol: as §1
# [7] = compound: COc1cc(F)c(F)c(Nc2ccc(I)cc2F)c1NS(=O)(=O)C1(C[C@H](O)CO)CC1 [RDEA119]; conditions: top dose 5 µM, top dose inferred
# Protocol: as §1
Cell Line,AUC [1],IC50 [1],AUC [2],IC50 [2],AUC [3],IC50 [3],AUC [4],IC50 [4],AUC [5],IC50 [5],AUC [6],IC50 [6],AUC ([7]; screen: GDSC drug entry 1014),IC50 ([7]; screen: GDSC drug entry 1014),AUC ([7]; screen: GDSC drug entry 1526),IC50 ([7]; screen: GDSC drug entry 1526)
"A2058 (melanoma, adherent)",0.584,1660 nM,0.573,496 nM,0.868,3850 nM,0.989,> 1020 nM,0.886,9180 nM,0.988,> 32000 nM,–,–,–,–
"BC-3 (B-cell lymphoma, suspension)",0.772,5540 nM,0.595,565 nM,0.477,278 nM,0.985,> 1020 nM,0.872,8000 nM,0.439,1390 nM,–,–,–,–
"BICR31 (head and neck, adherent)",0.758,5600 nM,0.619,681 nM,0.465,256 nM,0.985,> 1020 nM,0.979,> 10200 nM,0.967,> 32000 nM,–,–,–,–
"CAL-148 (breast, suspension)",0.854,11100 nM,0.636,736 nM,0.398,172 nM,0.983,> 1020 nM,0.944,> 10200 nM,0.381,967 nM,–,–,–,–
"COLO-829 (melanoma, adherent)",0.978,> 16000 nM,0.574,561 nM,0.633,887 nM,0.962,> 1020 nM,0.948,> 10200 nM,0.956,> 32000 nM,–,–,–,–
"COR-L88 (small cell lung carcinoma, adherent)",0.951,> 16000 nM,0.809,3320 nM,–,–,0.977,> 1020 nM,0.83,8200 nM,0.966,> 32000 nM,0.976,> 5000 nM,0.982,> 5000 nM
"CTB-1 (B-cell lymphoma, suspension)",0.741,6420 nM,0.617,757 nM,–,–,0.968,> 1020 nM,0.855,> 10200 nM,0.697,8870 nM,0.978,> 5000 nM,0.975,> 5000 nM
"Caov-3 (ovary, adherent)",0.877,12800 nM,0.785,1920 nM,0.771,1740 nM,0.991,> 1020 nM,0.989,> 10200 nM,0.751,9420 nM,–,–,–,–
"DOK (head and neck, adherent)",0.921,> 16000 nM,0.609,739 nM,–,–,0.976,> 1020 nM,0.976,> 10200 nM,0.973,> 32000 nM,0.397,142 nM,–,–
"EB-3 (Burkitt lymphoma, suspension)",0.765,6790 nM,0.602,639 nM,–,–,0.982,> 1020 nM,0.962,> 10200 nM,0.904,> 32000 nM,0.984,> 5000 nM,0.974,> 5000 nM
"H2803 (mesothelioma, adherent)",0.848,15000 nM,0.633,794 nM,0.933,> 5120 nM,0.982,> 1020 nM,0.931,> 10200 nM,0.974,> 32000 nM,–,–,–,–
"H2804 (mesothelioma, adherent)",0.818,10200 nM,0.584,556 nM,0.765,2050 nM,0.965,> 1020 nM,0.982,> 10200 nM,0.962,> 32000 nM,–,–,–,–
"HCC1599 (breast, suspension)",0.765,6680 nM,0.53,391 nM,0.375,138 nM,0.966,> 1020 nM,0.922,> 10200 nM,0.834,25300 nM,–,–,–,–
"HCC-33 (small cell lung carcinoma, adherent)",0.75,5300 nM,0.653,853 nM,0.411,181 nM,0.988,> 1020 nM,0.928,> 10200 nM,0.859,27000 nM,–,–,–,–
"IM-95 (stomach, adherent)",0.666,3000 nM,0.478,277 nM,0.544,426 nM,0.968,> 1020 nM,0.878,> 10200 nM,0.81,18200 nM,–,–,–,–
"IST-MES1 (mesothelioma, adherent)",0.864,14100 nM,0.749,1670 nM,0.714,1300 nM,0.974,> 1020 nM,0.976,> 10200 nM,0.901,> 32000 nM,–,–,–,–
"KMS-12-BM (myeloma, suspension)",0.741,4210 nM,0.604,585 nM,0.266,79.9 nM,0.981,> 1020 nM,0.917,> 10200 nM,0.855,18900 nM,–,–,–,–
"KP-4 (pancreas, adherent)",0.745,4870 nM,0.521,364 nM,–,–,0.988,> 1020 nM,0.894,> 10200 nM,0.85,22700 nM,–,–,0.892,> 5000 nM
"KP-N-YS (neuroblastoma, adherent)",0.597,1930 nM,0.605,651 nM,0.587,575 nM,0.936,> 1020 nM,0.774,4630 nM,0.623,4590 nM,–,–,–,–
"NB6 (neuroblastoma, adherent)",0.674,3430 nM,0.662,1010 nM,–,–,0.98,> 1020 nM,0.847,> 10200 nM,0.863,> 32000 nM,0.983,> 5000 nM,0.91,> 5000 nM

Cell Line,AUC [1],IC50 [1],AUC [2],IC50 [2],AUC [3],IC50 [3],AUC [4],IC50 [4],AUC [5],IC50 [5],AUC [6],IC50 [6],AUC ([7]; screen: GDSC drug entry 1014),IC50 ([7]; screen: GDSC drug entry 1014),AUC ([7]; screen: GDSC drug entry 1526),IC50 ([7]; screen: GDSC drug entry 1526)
"NB14 (neuroblastoma, adherent)",0.584,1670 nM,0.537,401 nM,–,–,0.989,> 1020 nM,0.949,> 10200 nM,0.987,> 32000 nM,0.884,4850 nM,0.942,> 5000 nM
"NCI-H69 (small cell lung carcinoma, suspension)",0.935,> 16000 nM,0.714,1390 nM,–,–,0.912,> 1020 nM,0.941,> 10200 nM,0.986,> 32000 nM,0.986,> 5000 nM,0.982,> 5000 nM
"NCI-H196 (small cell lung carcinoma, adherent)",0.879,> 16000 nM,0.636,777 nM,0.434,209 nM,0.953,> 1020 nM,0.984,> 10200 nM,0.972,> 32000 nM,–,–,–,–
"NCI-H748 (small cell lung carcinoma, suspension)",0.859,> 16000 nM,0.684,1220 nM,0.358,115 nM,0.947,> 1020 nM,0.917,> 10200 nM,0.865,> 32000 nM,–,–,–,–
"NCI-H1734 (lung adenocarcinoma, adherent)",0.801,8740 nM,0.569,503 nM,0.548,437 nM,0.984,> 1020 nM,0.941,> 10200 nM,0.873,> 32000 nM,–,–,–,–
"NCI-H2171 (small cell lung carcinoma, suspension)",0.863,11000 nM,0.694,1030 nM,0.399,176 nM,0.992,> 1020 nM,0.957,> 10200 nM,0.968,> 32000 nM,–,–,–,–
"NCI-H2196 (small cell lung carcinoma, adherent)",0.869,> 16000 nM,0.662,927 nM,0.418,189 nM,0.916,> 1020 nM,0.98,> 10200 nM,0.914,> 32000 nM,–,–,–,–
"ONS-76 (medulloblastoma, adherent)",0.643,2570 nM,0.524,374 nM,–,–,0.984,> 1020 nM,0.854,9050 nM,0.852,27900 nM,0.586,548 nM,0.438,208 nM
"SCC-3 (B-cell lymphoma, suspension)",0.817,5990 nM,0.59,527 nM,0.558,441 nM,0.995,> 1020 nM,0.997,> 10200 nM,0.377,1010 nM,–,–,–,–
"SF539 (glioma, adherent)",0.823,8230 nM,0.628,695 nM,–,–,0.979,> 1020 nM,0.941,> 10200 nM,0.813,15100 nM,0.783,1890 nM,0.863,3610 nM
"SIG-M5 (acute myeloid leukaemia, suspension)",0.521,1130 nM,0.34,130 nM,0.229,68 nM,0.984,> 1020 nM,0.524,733 nM,0.118,203 nM,–,–,–,–
"SNG-M (endometrium, adherent)",0.664,2820 nM,0.509,338 nM,–,–,0.983,> 1020 nM,0.814,5440 nM,0.898,> 32000 nM,0.976,> 5000 nM,0.767,1820 nM
"SNU-475 (liver, adherent)",0.882,13600 nM,0.777,1810 nM,0.529,380 nM,0.974,> 1020 nM,0.988,> 10200 nM,0.869,24000 nM,–,–,–,–
"SU-DHL-1 (anaplastic large cell lymphoma, suspension)",0.696,2980 nM,0.764,1400 nM,0.62,622 nM,0.992,> 1020 nM,0.968,> 10200 nM,0.491,1900 nM,–,–,–,–
"SUP-B15 (lymphoblastic leukaemia, suspension)",0.72,4060 nM,0.559,462 nM,0.329,109 nM,–,–,0.811,5170 nM,0.47,1660 nM,0.777,1920 nM,–,–
"TALL-1 (T-cell lymphoblastic leukaemia, suspension)",0.879,15100 nM,0.828,2950 nM,0.574,506 nM,0.987,> 1020 nM,0.988,> 10200 nM,0.878,29900 nM,–,–,–,–
"UACC-812 (breast, adherent)",0.981,> 16000 nM,0.736,1460 nM,0.937,> 5120 nM,0.991,> 1020 nM,0.991,> 10200 nM,0.96,> 32000 nM,–,–,–,–
"VMRC-MELG (melanoma, adherent)",0.779,6860 nM,0.604,628 nM,0.64,798 nM,0.989,> 1020 nM,0.988,> 10200 nM,0.948,> 32000 nM,–,–,–,–
"VMRC-RCW (kidney, adherent)",0.722,4020 nM,0.533,391 nM,0.939,> 5120 nM,0.988,> 1020 nM,0.887,10100 nM,0.966,> 32000 nM,–,–,–,–
"YKG-1 (glioma, adherent)",0.607,1980 nM,0.519,361 nM,–,–,0.984,> 1020 nM,0.843,7380 nM,0.918,> 32000 nM,0.659,873 nM,0.872,4880 nM
